From article PMC4335047, “Interaction between the tRNA-Binding and C-Terminal Domains of Yeast Gcn2 Regulates Kinase Activity In Vivo” (PLoS Genetics, 2015)
Numbering of substitutions follows the chain as printed. No constants are given. Whether binding was seen depends on the method and setting. For some assays here: In cells and extracts the contact can be indirect. Some results given as binding are weak or reduced against the parent protein; the word gives no strength. For some assays here: Tags and fused reporters may be left off the sequences shown. Each block holds one molecule with its values, some of them ahead of it.

Experiments:
[1] = biological target: T1, LexA-CTD (Gcn2 residues 1498–1659) (S. cerevisiae) (UniProt P15442); experiment: two-hybrid; lexA-CTD(1498–1659) and B42-KD(720–999) in yeast with lexAop-lacZ reporter; β-galactosidase activity; cells under starvation (sulfometuron methyl) or nonstarvation conditions
T1 sequence: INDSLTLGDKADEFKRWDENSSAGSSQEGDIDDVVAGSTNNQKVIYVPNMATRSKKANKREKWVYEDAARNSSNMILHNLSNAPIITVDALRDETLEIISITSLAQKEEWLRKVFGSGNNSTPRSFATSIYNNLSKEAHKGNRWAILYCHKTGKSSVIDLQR

[2] = biological target: T2, GST-HisRS (Gcn2 residues 970–1497), wild type (S. cerevisiae) (UniProt P15442); experiment: pull-down; purified GST-HisRS fusions (5 μg) immobilised on glutathione-Sepharose 4B beads; LexA-CTD in 500 μg of micrococcal nuclease-treated yeast whole-cell extract; buffer A (20mM Tris/HCl pH7.5, 100mM NaCl, 0.2mM EDTA, 1mM DTT), 4°C, 2 h; immunoblot with anti-LexA; only the target purified
T2 sequence: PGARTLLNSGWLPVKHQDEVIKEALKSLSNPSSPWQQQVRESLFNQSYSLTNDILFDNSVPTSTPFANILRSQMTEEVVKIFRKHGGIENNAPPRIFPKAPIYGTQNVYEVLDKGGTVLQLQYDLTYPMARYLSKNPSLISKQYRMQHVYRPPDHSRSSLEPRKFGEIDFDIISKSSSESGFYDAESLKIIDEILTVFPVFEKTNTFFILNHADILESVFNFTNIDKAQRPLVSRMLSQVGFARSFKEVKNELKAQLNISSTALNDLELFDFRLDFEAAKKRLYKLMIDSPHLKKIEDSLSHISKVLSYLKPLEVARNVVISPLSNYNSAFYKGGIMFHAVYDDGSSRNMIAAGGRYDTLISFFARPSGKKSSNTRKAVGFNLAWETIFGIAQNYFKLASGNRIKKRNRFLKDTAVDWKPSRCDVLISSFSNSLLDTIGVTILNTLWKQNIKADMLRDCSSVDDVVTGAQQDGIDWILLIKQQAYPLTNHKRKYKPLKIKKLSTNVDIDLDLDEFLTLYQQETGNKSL

[3] = biological target: T3, GST-HisRS (Gcn2 residues 970–1497) Y1092C/T1328S/A1353V (S. cerevisiae) (UniProt P15442); experiment: as above
T3 sequence: T2 sequence with Y123C, T359S, A384V

[4] = biological target: T4, GST-HisRS (Gcn2 residues 970–1497) D1327K (S. cerevisiae) (UniProt P15442); experiment: as above
T4 sequence: T2 sequence with D358K

[5] = biological target: T5, GST-HisRS (Gcn2 residues 970–1497) D1327K/Y1092C/T1328S/A1353V (S. cerevisiae) (UniProt P15442); experiment: as above
T5 sequence: T2 sequence with Y123C, D358K, T359S, A384V

[6] = biological target: T6, GST-CTD (Gcn2 residues 1498–1659) (S. cerevisiae, UniProt P15442 1498-1659); experiment: pull-down; purified GST fusions (5 μg) immobilised on glutathione-Sepharose 4B beads; in vitro translated [35S]-HisRS(970–1497), partially purified by ammonium sulfate precipitation; buffer A, 4°C, 2 h; without or with increasing tRNA^Phe or a model mRNA; fluorography; only the target purified
T6 construct: Gcn2 of S. cerevisiae, C-terminal domain (CTD), residues 1498-1659; a pGEX vector with the tac promoter points to E. coli; also called GST-GCN2(1498–1659); source: purified GST fusion (P tac, pGEX-5x-1); not shown: GST, N-terminal, kept
T6 sequence (looked up): T1 sequence

[7] = biological target: T2, GST-HisRS (Gcn2 residues 970–1497), wild type (S. cerevisiae); experiment: as above
[8] = biological target: T7, GST-KD (Gcn2 residues 568–998) (S. cerevisiae, UniProt P15442 568-998); experiment: as above
T7 construct: Gcn2 of S. cerevisiae, kinase domain (KD), residues 568-998; a pGEX vector with the tac promoter points to E. coli; also called GST-GCN2(568–998); source: purified GST fusion (P tac, pGEX-5x-1); not shown: GST, N-terminal, kept

binding [1]: binds
Molecule: B42-KD (Gcn2 residues 720–999) (from UniProt P15442 720-999) (domain or fragment)

binding [2]: binds weakly
binding [3]: binds weakly
binding [4]: binds
binding [5]: binds
B1: LexA-CTD (Gcn2 residues 1498–1659) (domain or fragment, UniProt P15442 1498-1659)
chain: T1 sequence

binding [6]: binds
binding [7]: binds
binding [8]: binds
B2: [35S]-HisRS(970–1497) segment of Gcn2 (domain or fragment, S. cerevisiae, UniProt P15442 970-1497, looked up)
chain: T2 sequence
modifications: [35S]-methionine labeled
notes: Gcn2 of S. cerevisiae, HisRS-related domain, residues 970-1497; P T7-GCN2 (970–1497) in pGEM-3Z; also called [^35S]-methionine labeled HisRS fragment; [^35S]-HisRS domain fragments; source: in vitro translated (TNT T7 Coupled Reticulocyte Lysate System), partially purified by ammonium sulfate precipitation
